In PMC6919601, “Identification of Plasmodium dipeptidyl aminopeptidase allosteric inhibitors by high throughput screening” (PLoS ONE, 2019):
In all, about 110,000 compounds went through this assay and about 230 (0.21%) showed an effect of 50% or more. The list shows a part of the results.

target: DPAP1 (Plasmodium falciparum, UniProt Q8IIJ9); experiment: primary screen, percent inhibition; read by cleavage of a fluorogenic dipeptide substrate; higher = more effect of the substance; design: species or system P. falciparum D10 trophozoite lysates; single well
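Note: 30 min substrate incubation versus DMSO and 10 µM JCP410 controls.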

Sequence of DPAP1 (Q8IIJ9 whole entry, looked up): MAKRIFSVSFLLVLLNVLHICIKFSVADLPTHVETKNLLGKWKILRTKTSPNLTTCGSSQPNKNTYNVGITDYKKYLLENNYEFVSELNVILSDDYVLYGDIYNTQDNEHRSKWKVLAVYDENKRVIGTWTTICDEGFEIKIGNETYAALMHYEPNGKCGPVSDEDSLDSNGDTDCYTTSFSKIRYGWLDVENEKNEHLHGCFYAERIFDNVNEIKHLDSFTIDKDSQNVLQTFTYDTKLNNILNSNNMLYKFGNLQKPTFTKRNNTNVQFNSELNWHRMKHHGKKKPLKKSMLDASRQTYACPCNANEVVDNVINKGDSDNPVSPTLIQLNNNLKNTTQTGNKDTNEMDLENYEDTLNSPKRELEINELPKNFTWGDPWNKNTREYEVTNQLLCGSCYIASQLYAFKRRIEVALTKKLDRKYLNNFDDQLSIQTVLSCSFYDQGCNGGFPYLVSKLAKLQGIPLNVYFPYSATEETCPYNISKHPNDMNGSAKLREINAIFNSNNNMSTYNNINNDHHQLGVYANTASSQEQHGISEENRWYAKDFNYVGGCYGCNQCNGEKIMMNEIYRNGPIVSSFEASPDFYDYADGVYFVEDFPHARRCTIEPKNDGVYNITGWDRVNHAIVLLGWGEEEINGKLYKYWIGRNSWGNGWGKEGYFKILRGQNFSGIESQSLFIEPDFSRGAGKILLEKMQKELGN

SMILES	% Inhibition @ 10 uM [%]
COc1ccc(CNc2ccc(F)cc2C)cc1C	-0.233
COc1cc(Br)cc2cc(C(=O)NCCCN(C)C)c(=O)oc12	5.93
CCc1ccc(-c2nc3cc(NC(=O)c4ccc([N+](=O)[O-])c(C)c4)ccc3o2)cc1	-2.42
COCCNC(=O)C1CCCN(S(=O)(=O)c2ccc(C)cc2)C1 (stereo not shown)	0.635
CC(=O)c1sc(N2C(=O)c3oc4ccccc4c(=O)c3C2c2ccc(C(C)C)cc2)nc1C (stereo not shown)	2.16
Cn1c(=O)[nH]c(=O)c2c1ncn2CCNCc1ccco1	0.0289
CCC(C)NC(=O)CS(=O)Cc1nc(-c2ccccc2F)oc1C (stereo not shown)	3.79
OC1CN2CCC1C(c1ccccc1)C2 (stereo not shown)	4.09
CCOC(=O)C1=C(CN2CCCC2)NC(=O)NC1c1ccccc1 (stereo not shown)	0.44
COc1cc(C2C3=C(O)CCCC3=Nc3nc(SCc4ccccc4F)nc(O)c32)ccc1O (stereo not shown)	0.413
COc1cc(CCC(=O)NCCNC(C)=O)cc(OC)c1OC	3.47
O=C1/C(=C/c2cc(Cl)cc([N+](=O)[O-])c2O)Sc2ccccc21	0.986
CCC(C)NC(=O)C1CC1c1ccccc1 (stereo not shown)	-1.78
CC(C)(C)OC(=O)NC(C#N)c1ccccc1 (stereo not shown)	0.528
Cc1ccccc1CN1CCN(CC(=O)NCCCSC2CCCCC2)C1=O	-2.72
CCCCNC(=O)C1CC(c2ccc(OC)c(OC)c2)=NO1 (stereo not shown)	-2.16
O=C(CN1C(=O)c2ccccc2S1(=O)=O)NCc1cccnc1	-1.51
Cc1ccc(S(=O)(=O)c2nnn3c2nc(N2CCC(C(N)=O)CC2)c2ccccc23)cc1	-6.91
c1ccc(Cn2c3ccccc3n3nc(-c4ccccc4)nc23)cc1	-1.86
O=C(NCCc1cccc(Cl)c1)c1ccc2c(c1)OCO2	0.316
COc1ccccc1-c1nc(S(C)(=O)=O)nn1Cc1ccccc1F	-2.79
Cc1cc(=O)[nH]c(=O)n1-c1ccc(CC(=O)O)cc1	-3.92
CCN(CC)S(=O)(=O)c1ccc(/N=C/c2c(C)nn(-c3ccc(C)cc3)c2O)cc1	2.36
CC(=O)c1ccc2c(c1)c1ccccc1n2CCC(C)C	4.18
Nc1c(C(=O)Nc2nncs2)sc2nc3c(cc12)N1CCC3CC1	0.883

SMILES	% Inhibition @ 10 uM [%]
Cc1ccc(C2CC(=O)C(/C=N/CCN3CCN(C4OC(=O)c5ccccc54)CC3)=C(O)C2)cc1 (stereo not shown)	-4.85
Cc1ccc2nc3c(cc(C(=O)NCc4cccnc4)c(=N)n3CCN3CCOCC3)c(=O)n2c1	-5.14
O=C(Cn1ccc2cc(S(=O)(=O)N3CCCC3)ccc21)NCc1ccc2c(c1)OCO2	-7.02
COCCCNC(=O)c1ccc(CN2CCOCC2)cc1	-1.59
N#CC1=C(N)Oc2nc(O)nc(O)c2C1c1cccc(F)c1 (stereo not shown)	3.1
O=[N+]([O-])c1ccc(N2CCN(Cc3ccc(Br)cc3)CC2)cc1	1.55
CCC(Sc1nc2cccnc2[nH]1)C(=O)N1CCOCC1 (stereo not shown)	7.91
Cc1ccccc1Cn1nnc(-c2ccc(C(=O)O)cc2)n1	-0.624
CCOC(=O)c1c(NC(=O)Cc2csc(C)n2)sc(C)c1C	0.758
Cc1cc(CN2CCN(c3ccccc3F)CC2)c(C)n1-c1cccc(C(F)(F)F)c1	-3.5
O=C(O)c1ccc(Sc2ccc(S(=O)(=O)c3ccc(C(=O)O)c(C(=O)O)c3)cc2)cc1	11.3
O=C(O)C1Cc2c([nH]c3ccccc23)C(c2ccc(F)cc2)N1 (stereo not shown)	-5.9
CCOC(=O)C1=C(C)NC(=O)NC1c1ccc(N(C)C)cc1 (stereo not shown)	-4.98
CCn1c(SCc2nc(-c3ccc(OC)cc3)no2)nnc1-c1ccncc1	4.47
NC(=S)Nc1nc2ccccc2nc1O	-5
CS(=O)(=O)CCC(C(=O)N1CC=C(c2ccccc2)CC1)N1Cc2ccccc2C1=O (stereo not shown)	3.37
Cc1ccc2oc(=O)c3cc(C(=O)NC4CCCCC4)sc3c2c1	-1.54
COc1ccc(CNC(=O)c2ccc(C)cc2)cc1	-3.44
Cc1ccc(S(=O)(=O)C2C(=O)NC3(C)CC2c2cc(Cl)ccc2O3)cc1 (stereo not shown)	-2.45
CCN(CC)CCCNC(=O)c1cc2c(s1)CSC2	-1.3
CCc1nn(CC(=O)NC2CCC(C)CC2)c(=O)c2cc3sccc3n12 (stereo not shown)	1.8
Fc1ccc(N2CCN(C/C=C/c3ccccc3)CC2)cc1	0.472
CC(C)CCNC(=O)Cn1c(NCCC(C)C)nc2c1c(=O)n(C)c(=O)n2C	-4.85
COc1ccc(/C=C2/SC(=O)N(CN(C)C)C2=O)cc1	0.35
O=S(=O)(c1ccc(Cl)cc1)c1ccc(C(F)(F)F)cn1	-8.12

SMILES	% Inhibition @ 10 uM [%]
COc1ccc(/C=C2\CCc3ccccc3C2=O)c(OC)c1	4.79
OCCOCCN1CCN(C2CCC(c3ccccc3)CC2)CC1 (stereo not shown)	-1.81
Cc1cc(C)c(S(=O)(=O)N(C)c2ccccc2)c(C)c1	1.83
CCn1ncc(C2=NOC(C(=O)NCC34CC5CC(CC(C5)C3)C4)C2)c1C (stereo not shown)	-3.08
CC1CCCCC1N1C(=O)c2ccccc2C1C(=O)NC1CCCCC1 (stereo not shown)	2.79
CN(Cc1ccccc1)C(=O)Nc1cn(C)c(=O)c2ccccc12	10.5
COc1ccc(C(=O)n2nc(-c3ccco3)nc2SCc2ccccc2)cc1OC	4.08
O=C(O)c1c(CNCCCc2ccccc2)c2ccccc2n1Cc1cccc(Cl)c1	-1.44
CCN(Cc1ccccc1)C(=O)c1cc2cc3cc(OC)ccc3nc2s1	50.3
Cc1cccc(-c2noc(CCCC(=O)N3CCN(C)CC3)n2)c1	0.558
COc1ccc(NC(=O)COc2ccc3c(=O)c(Oc4ccccc4C(C)C)coc3c2)cc1	1.05
CCCCN(C)C1CC(=O)N(c2ccccc2)C1=O (stereo not shown)	0.751
CNS(=O)(=O)c1ccc(NC(=O)Nc2cccc(C)c2)cc1	-1.28
Cc1ccnc(NC(=O)Cc2c(F)cccc2Cl)c1	1.39
O=C(NCc1ccco1)C1CCCN(c2ncnc3c2nc2n3CCCCC2)C1 (stereo not shown)	1.4
Cc1ccc(S(=O)(=O)Nc2cccc(-c3cn4cccnc4n3)c2)cc1	1.83
COc1ccccc1CNC(=O)c1oc2c(c1C)-c1n[nH]cc1CC2	5.42
Cn1c2ccccc2n2c(SCCOc3ccc(Cl)cc3)nnc12	-9.34
CC(C)C[C@H](NC(=O)OCc1ccccc1)C(=O)NC(C#N)/C=C/c1ccco1 (stereo partly shown)	-1.41
N#Cc1ccccc1N1C(=O)C2C3C=CC(CC3)C2C1=O (stereo not shown)	-0.759
S=C1NC2(CCCCC2)N=C1c1ccc(Cl)cc1	3.5
CCOC(=O)c1c(-c2ccccc2)csc1NC(=O)c1cc(-c2ccco2)on1	-0.591
COc1ccc2cc(Br)ccc2c1CC(=O)NCCCN1CCOCC1	-1.98
Cc1occc1-c1nnc2sc(/C=C/c3ccc(C(C)C)cc3)nn12	-4.91
COc1cccc(-c2nnc3n2N=C(c2ccc(Br)cc2)CS3)c1	3.05

SMILES	% Inhibition @ 10 uM [%]
c1ccc2c(CN3CCc4c([nH]c5ccccc45)C3)c[nH]c2c1	-2.81
Cc1cc(C)c(NC(=O)CN2CCCCCC2)c(C)c1	-0.0369
CC1=C(C#N)C(c2ccc(N(C)C)cc2)C2=C(O)CC(c3ccc(Cl)cc3)CC2=N1 (stereo not shown)	-3.77
CCC(C)(C)C1CCc2c(sc(NC(=O)CC(C)C)c2C(N)=O)C1 (stereo not shown)	2.42
COc1ccc(CCNC(=O)COc2cc(C)c(Cl)c(C)c2)cc1OC	4.08
CC12C=CC(O1)C1C(=O)N(c3ccccc3Cl)C(=O)C12 (stereo not shown)	3.87
COc1cc(C2c3c(oc4ccc(F)cc4c3=O)C(=O)N2c2nccs2)ccc1O (stereo not shown)	2.1
COc1cccc(CN2CCN(Cc3ccco3)CC2)c1	-13.6
COc1ccc(NC(=O)CN(c2ccc(OC)c(Cl)c2)S(C)(=O)=O)cc1	1.89
COc1ccc(-c2[nH]nc3c2C(c2cccnc2)N(C)C3=O)cc1 (stereo not shown)	-2.84
CCOC(=O)c1conc1-c1cccc(O)c1	-0.233
COc1cc(C(=O)Nc2cc(C)cc(C)n2)cc(OC)c1OC	-8.42
CCN(CC)c1ccc(CN2CCN(c3ccccn3)CC2)cc1	3.68
O=c1cccc2n1C[C@H]1C[C@@H]2CN(Cc2ccc(-c3ccccc3)cc2)C1	1
COc1cc(/N=C/C2=C(O)CC(C)(C)CC2=O)c(OC)cc1Cl	3.92
COc1nc(N)c(C#N)c(-c2ccccc2)c1-c1ccccc1	-10.2
Cc1ccc(S(=O)(=O)N2CCc3ccccc32)cc1S(=O)(=O)N1CCc2ccccc21	-0.992
N#C/C(=C/C=C/c1ccccc1)c1nc(-c2ccc([N+](=O)[O-])cc2)cs1	-6.27
CCCCn1c(=N)n(CC(O)COc2ccccc2)c2ccccc21 (stereo not shown)	0.431
O=C1OC(c2ccccc2F)=N/C1=C\c1cccc(C(F)(F)F)c1	-3.52
CC1=C(C(=O)OC2CCCCC2)C(c2cccc(Br)c2)NC(=O)N1 (stereo not shown)	1.83
O=C(NC1(C(F)(F)F)NC(=O)N(c2ccc(F)cc2)C1=O)C1CCCCC1 (stereo not shown)	-3.34
COc1cc(OC)c2c(C)c(CC(=O)N3CCOCC3)c(=O)oc2c1	-1.02
Cc1cccc(NS(=O)(=O)c2ccc(/N=C/c3c(O)nc(O)c(C#N)c3C)cc2)c1	0.983
CC(C)C(=O)N1N=C(c2ccccc2)NC(=O)C1c1c[nH]c2ccccc12 (stereo not shown)	15.9
